Measured values: article PMC6919601, “Identification of Plasmodium dipeptidyl aminopeptidase allosteric inhibitors by high throughput screening” (PLoS ONE, 2019)
Among all 110,000 compounds or so, about 230 (0.21%) showed an effect of 50% or more. This is one part of the list.

What follows are compounds tested against DPAP1 (Plasmodium falciparum, UniProt Q8IIJ9) (assay: primary screen, percent inhibition; read by cleavage of a fluorogenic dipeptide substrate; higher = more effect of the substance).
Design: species or system P. falciparum D10 trophozoite lysates; single well
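Note: 30 min substrate incubation versus DMSO and 10 µM JCP410 controls.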

Chain of DPAP1 (Q8IIJ9 whole entry, looked up): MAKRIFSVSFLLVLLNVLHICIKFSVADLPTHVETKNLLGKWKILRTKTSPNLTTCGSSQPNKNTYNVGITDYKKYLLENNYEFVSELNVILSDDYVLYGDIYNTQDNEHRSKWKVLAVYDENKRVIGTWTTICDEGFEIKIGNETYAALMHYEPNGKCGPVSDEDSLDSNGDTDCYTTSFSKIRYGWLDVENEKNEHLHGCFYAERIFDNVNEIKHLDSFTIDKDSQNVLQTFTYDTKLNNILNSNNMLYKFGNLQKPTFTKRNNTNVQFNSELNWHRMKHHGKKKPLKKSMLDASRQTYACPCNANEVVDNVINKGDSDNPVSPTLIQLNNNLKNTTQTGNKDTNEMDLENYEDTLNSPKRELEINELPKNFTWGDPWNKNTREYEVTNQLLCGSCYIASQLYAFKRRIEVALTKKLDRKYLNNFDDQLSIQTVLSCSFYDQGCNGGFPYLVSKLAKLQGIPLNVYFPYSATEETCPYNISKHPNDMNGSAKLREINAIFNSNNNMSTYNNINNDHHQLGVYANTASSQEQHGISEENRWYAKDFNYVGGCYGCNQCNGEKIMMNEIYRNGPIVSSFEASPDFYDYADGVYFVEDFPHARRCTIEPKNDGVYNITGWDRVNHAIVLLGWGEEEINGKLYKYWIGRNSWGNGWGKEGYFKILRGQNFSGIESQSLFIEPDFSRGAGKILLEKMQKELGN

Structure (SMILES)	% Inhibition @ 10 uM
CC(=O)N(C)c1ccc(NC(=O)c2ccc(-c3ccccc3)cc2)cc1	1.63%
CCN1CCN(C(=O)C2CCN(Cc3nc(-c4cccc(Cl)c4)oc3C)CC2)CC1	0.475%
COC(=O)c1cc(-c2ccc(OCc3ccccc3)c(OC)c2)no1	22.9%
CCCn1c2ccccc2c2cnn(CC(=O)NCCc3ccc(Cl)cc3)c(=O)c21	0.721%
c1ccc(CCC2=NCCn3cccc32)cc1	-3.65%
O=C(Nc1cccc([N+](=O)[O-])c1)c1cccc([N+](=O)[O-])c1	1.54%
O=C(CCCC(=O)c1ccccc1)NCc1cccc2ccccc12	-3.44%
O=C(CCCCCN1C(=O)c2ccccc2C1=O)Nc1cccc(Cl)c1	4.88%
FC(F)(F)c1cccc(CNC2CCN(CCc3ccccc3)CC2)c1	0.217%
Cc1n[nH]c(C)c1CCc1nc2c3ccccc3nc(S)n2n1	18.4%
c1ccc2c(c1)nc(N1CCN(C3CCCCC3)CC1)c1nnnn12	0.166%
CCCCCCNC(=O)Nc1ccccc1	1.83%
COc1ccc(C2CC(=O)C3=C(C2)NC(=O)CC3c2cccc(Oc3ccccc3)c2)cc1 (stereo not shown)	3.11%
CC(C)CC(NC(=O)NCc1ccccn1)C(=O)NCC#N (stereo not shown)	-3.97%
CCN(CCN(C)C)Cc1ccc([N+](=O)[O-])cc1	-5.42%
COc1cc(OC)c(C2SCCN2S(=O)(=O)c2ccc(Cl)cc2)cc1OC (stereo not shown)	-13.3%
CCC1CCCCN1Cc1ccc(CNC(=O)Nc2cn(CC(C)C)c(=O)c3ccccc23)o1 (stereo not shown)	-3.45%
COc1ccccc1N1CCN(S(=O)(=O)c2ccc(-c3ccccc3)cc2)CC1	6.08%
CCC[C@H](NC(=O)[C@@H](NC(=O)c1ccc(-c2ccccc2Cl)cc1)C1CCCCC1)C(=O)c1nnc(CC)o1	-6.98%
C=Cc1ccc(Cn2c(C(=O)O)c(CNCc3cccc(C)c3)c3ccc(C)cc32)cc1	1.94%
O=C1OC(c2ccc(Cl)cc2)=N/C1=C/c1cc2ccccc2nc1N1CCOCC1	0.275%
CC1(C)CC(=O)c2c(nn(-c3ccccc3)c2N)C1	0.343%
CC(C)n1c(Sc2nccn2C)nc2c1c(=O)n(C)c(=O)n2C	0.983%
CS/C=C(\c1ccccc1)c1ccncc1	-2.87%
CCCc1cc(=O)n(C)c(CC(=O)c2ccc(Cl)cc2)n1	6.79%
CC1CC(C)(C)NC(=S)N1CC(=O)NCc1ccc2c(c1)OCO2 (stereo not shown)	2.06%

Structure (SMILES)	% Inhibition @ 10 uM
CC(C)CCn1c(=O)c2sccc2n2c(CCCC(=O)NCc3ccco3)nnc12	1.66%
O=C(NCc1ccccc1Cl)C(=O)Nc1cccc(C(F)(F)F)c1	-4.01%
CC(=O)Nc1ccc2ccccc2c1C#N	-2.85%
Clc1ccccc1CNc1cc2c(cc1Br)OCCO2	1.87%
CN(C)CCN(C)Cc1ccccc1F	-4.4%
CC(=O)c1cn(S(=O)(=O)c2ccccc2)c2ccccc12	3.81%
Cn1c(=O)c2sccc2n2c(CCCC(=O)NCc3cccnc3)nnc12	-2.72%
O=C(NCCc1ccccc1)NC1CCCCC1	-0.414%
CN(C)Cc1cc(C(C)(C)C)cc(C(C)(C)C)c1O	4.8%
CCCCN(Cc1ccccc1)C1CCN(C(=O)OCC)CC1	-1.82%
COc1cc2c(cc1OC)C(c1ccc(Br)cc1)=NCC2	0.345%
CCOC(=O)C1=C(CN2CCN(C(=O)OCC)CC2)NC(=O)NC1c1ccc(C)cc1 (stereo not shown)	-1.65%
Cc1nnc2c3ccccc3nc(NCc3ccccc3)n12	-3.9%
CC(=O)NS(=O)(=O)c1ccc(NC(=O)c2ccc(C(C)C)cc2)cc1	3.27%
COc1cc(CNC2CN3CCC2CC3)cc(OC)c1 (stereo not shown)	-5.11%
CCOC(=O)c1noc2ncnc(N(Cc3ccco3)C3CCN(C)CC3)c12	1.63%
Cc1ccc(S(=O)(=O)c2cnc3ccc(F)cc3c2O)cc1C	-1.7%
CCCCC(=O)N1CCc2cc(OC)c(OC)cc2C1COc1ccc(C(=O)OC)cc1 (stereo not shown)	3.52%
COC(=O)c1c(N)sc2c1CCC(C(C)(C)C)C2 (stereo not shown)	1.8%
Cn1c(=O)c2c(-c3ccccc3)n(-c3ccc(F)cc3)cc2n(C)c1=O	-1.52%
C=CCN1C(=O)NC(=O)/C(=C/c2ccco2)C1=O	5.98%
O=C1CSC(c2ccccc2)N1c1cccc(Cl)c1 (stereo not shown)	-4.01%
COCCCN1CC(=O)C(c2nc3ccccc3s2)=C1N	-1.22%
Cc1cccc(C)c1-n1nnnc1C1(N(C)C)CCCCC1	4.44%
Cc1ccccc1Cn1cnc2c(nnn2Cc2ccccc2F)c1=O	-5.79%
Brc1ccc(C2=CC(c3cccs3)n3c(nc4ccccc43)N2)s1 (stereo not shown)	1.73%

Structure (SMILES)	% Inhibition @ 10 uM
Nc1c(C(=O)Nc2ccccc2)sc2nccc(Nc3ccccc3)c12	43%
COc1cc2c(cc1OC)C(c1cc(OC)c(OC)c(OC)c1)CC(=O)N2 (stereo not shown)	-3.09%
N#Cc1cc2c(N)c(C(=O)NCc3ccc(Cl)cc3)sc2nc1N	42.4%
COc1cc(Br)c(C2C(C#N)=C(N)Oc3[nH]nc(-c4ccncc4)c32)cc1OC (stereo not shown)	7.43%
O=C(O)c1ccc2c(c1)C(=O)N(c1cccc(Cl)c1Cl)C2=O	3.91%
COc1ccc(C(=O)C2=C(O)C(=O)N(CCCN3CCOCC3)C2c2ccc(C(C)(C)C)cc2)cc1 (stereo not shown)	3.8%
O=C(O)CCCN1C(=O)C(O)=C(C(=O)c2ccc(Cl)cc2)C1c1ccccc1 (stereo not shown)	3.49%
O=C1NCCCC[C@@H]1Nc1cnccn1	-12.8%
CC1=C(C(=O)Nc2cc(C)ccn2)C(c2cccnc2)C2=C(O)CCCC2=N1 (stereo not shown)	-2.24%
CCCCC(=O)N1CCc2cc(OC)c(OC)cc2C1COc1ccccc1OC (stereo not shown)	2.4%
CCC1CCc2c(sc(NC(=O)c3ccc(Br)o3)c2C(N)=O)C1 (stereo not shown)	6.15%
CCC(C)NC(=O)c1ccc(CS(=O)(=O)c2ccc(C)cc2)o1 (stereo not shown)	-8.9%
Cc1ccn2c(NC(=O)Cc3ccccc3)c(-c3ccc(F)cc3)nc2c1	-0.58%
Cc1nnc(SCC#CCO)s1	1.74%
Cc1cc(C)c(C)c(OCCCCN2CCOCC2)c1	-0.351%
CCOc1ccc(S(=O)(=O)N=Nc2c(O)n(C)c3ccccc23)cc1	6.27%
C=Cc1ccc(Cn2c(C(=O)O)c(CNC(C)CCc3ccccc3)c3ccccc32)cc1 (stereo not shown)	3.54%
CCOc1cc(C2C(C#N)=C(N)OC3=C2C(=O)CCC3)ccc1OC (stereo not shown)	4.6%
Cc1cc(C)cc(N(CC(=O)NCC(O)c2ccccc2)S(=O)(=O)c2ccccc2)c1 (stereo not shown)	-2.29%
CCOC(=O)C1CCCN(Cc2ccc(SC)cc2)C1 (stereo not shown)	-0.192%
CC(C(=O)NCC1CCCO1)n1cccc1C(=O)c1ccccc1 (stereo not shown)	-11.9%
Cc1ccc(/C=C2\N=C(c3ccc(C(C)(C)C)cc3)OC2=O)o1	-8.97%
Cc1nn(-c2ccccc2)c2sc(C(N)=O)cc12	6.83%
CCc1nn(CC(=O)NC(C)CC)c(=O)c2cccn12 (stereo not shown)	-4.93%
COCCN1C(=O)c2ccccc2C(C(=O)NCCCN2CCOCC2)C1c1cccs1 (stereo not shown)	-7.99%
OC1C2CN3CCN(C2)CC1(Cc1ccccc1)C3 (stereo not shown)	-3.6%

Structure (SMILES)	% Inhibition @ 10 uM
CC(C)N(CCc1ccncc1)C(=S)NC1CCCCC1	3.93%
Cc1cccc(C(=O)NCc2ccc3c(c2)OCO3)c1	-3.37%
Cc1cc(C)nc(NC(=O)Nc2ccc(Cl)cc2)n1	-2.81%
Nc1ncnc2[nH]c(SCC(=O)NCc3ccco3)nc12	-0.45%
Cc1cccc(-c2noc(CCC(=O)NCC3CCCO3)n2)c1 (stereo not shown)	4.47%
Cc1ccc(/C=C2/NC(=O)N(Cc3ccccc3F)C2=O)o1	-3.65%
CC1(c2ccc(Cl)cc2)N=C(c2ccccc2)C(=S)N1 (stereo not shown)	4.07%
C#CCOc1ccc(C=C2C(=O)OC(C)(C(C)(C)C)OC2=O)cc1 (stereo not shown)	0.275%
N#C/C(=C\c1c(Oc2ccccc2)nc2ccccn2c1=O)C(=O)NCC1CCCO1 (stereo not shown)	4.99%
N#Cc1nc(-c2ccccc2)cc(-c2ccccc2)n1	4.38%
CCSc1nnc2c(=O)n(C)c(=O)n(C)c2n1	-10.7%
COc1ccc(CCn2c(C)cc3c(c2=O)C(c2cccc(Cl)c2)C(C#N)=C(N)O3)cc1OC (stereo not shown)	-4.78%
CCOC(=O)C1=C(C)N=c2s/c(=C/c3ccc(OC)cc3)c(=O)n2C1/C=C/c1ccccc1 (stereo not shown)	0.997%
O=C(COc1ccc(Cl)cc1)Nc1ccccc1C(=O)Nc1ccccc1	-1.49%
Cc1c(C(=O)O)cnn1-c1ccccc1	2.39%
CCCCC/C=C/C(=O)Nc1nc2ccc(OCC)cc2s1	1.13%
Cc1nnc2c(N3CC=C(c4ccccc4)CC3)nc3ccccc3n12	3.4%
O=C(O)C1C2CCC(C2)C1C(=O)Nc1ccc(F)c(Cl)c1 (stereo not shown)	5.6%
COCCNC(=O)Cn1ncc2c3cc(C)ccc3nc-2c1O	2.42%
COc1ccc(-c2noc(CSc3nc4cc(C)ccc4[nH]3)n2)cc1OC	-1.11%
Cc1ccc(NC(=O)Cc2noc3ccccc23)nc1	0.0845%
COc1ccc(Cn2c(CCC(=O)NC3CCCC3)nc3cccnc32)cc1	-2.88%
COc1ccc(C2c3c(-c4ccccc4O)n[nH]c3C(=O)N2CCCO)cc1 (stereo not shown)	-1.35%
O=C(Nc1ccc(Cl)cc1[N+](=O)[O-])c1cc2ccccc2cc1O	-1.25%
CCC(NC1C=CS(=O)(=O)C1)C(=O)O (stereo not shown)	-7.25%
